Assay results as given in paper PMC4336329 (PLoS ONE, 2015).
Among all 310,000 compounds or so, about 2,200 (0.71%) showed an effect of 50% or more. Effects have a minus sign here. Some of the results follow.

Biological target: human ether-à-go-go-related gene (hERG) potassium channel (human, UniProt Q12809)
Assay: primary screen, population patch clamp on CHO cells stably expressing hERG

Chain of human ether-à-go-go-related gene (hERG) potassium channel (Q12809 whole entry, looked up): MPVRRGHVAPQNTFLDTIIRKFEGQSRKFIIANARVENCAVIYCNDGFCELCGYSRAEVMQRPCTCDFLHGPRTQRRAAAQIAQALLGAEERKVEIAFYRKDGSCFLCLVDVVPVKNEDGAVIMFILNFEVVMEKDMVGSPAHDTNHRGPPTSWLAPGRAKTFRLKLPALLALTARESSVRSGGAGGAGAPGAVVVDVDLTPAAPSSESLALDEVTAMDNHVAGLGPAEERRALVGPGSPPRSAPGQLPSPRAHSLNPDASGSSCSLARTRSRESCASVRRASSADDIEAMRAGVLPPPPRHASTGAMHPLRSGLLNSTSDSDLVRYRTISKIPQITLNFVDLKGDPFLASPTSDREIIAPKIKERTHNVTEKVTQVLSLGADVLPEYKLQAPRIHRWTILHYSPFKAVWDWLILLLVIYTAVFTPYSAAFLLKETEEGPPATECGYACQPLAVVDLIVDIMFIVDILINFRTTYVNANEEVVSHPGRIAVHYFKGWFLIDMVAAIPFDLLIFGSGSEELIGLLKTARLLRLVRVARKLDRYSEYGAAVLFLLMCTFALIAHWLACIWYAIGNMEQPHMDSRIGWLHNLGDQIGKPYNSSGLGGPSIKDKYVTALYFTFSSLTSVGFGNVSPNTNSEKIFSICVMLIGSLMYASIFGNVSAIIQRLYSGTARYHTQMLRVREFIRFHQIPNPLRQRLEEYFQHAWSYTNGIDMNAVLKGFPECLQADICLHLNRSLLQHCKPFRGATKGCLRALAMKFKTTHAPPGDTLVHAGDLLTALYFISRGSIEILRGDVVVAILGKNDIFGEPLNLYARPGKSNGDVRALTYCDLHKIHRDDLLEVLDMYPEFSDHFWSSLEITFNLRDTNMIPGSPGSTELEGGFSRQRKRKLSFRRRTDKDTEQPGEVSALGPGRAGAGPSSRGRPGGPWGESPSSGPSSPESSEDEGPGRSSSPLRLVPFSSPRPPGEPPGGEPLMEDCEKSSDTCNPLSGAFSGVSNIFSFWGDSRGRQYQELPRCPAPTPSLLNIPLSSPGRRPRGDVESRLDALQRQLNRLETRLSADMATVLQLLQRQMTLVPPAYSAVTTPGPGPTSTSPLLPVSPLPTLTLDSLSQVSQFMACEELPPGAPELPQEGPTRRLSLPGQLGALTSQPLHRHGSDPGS

Structure (SMILES)	hERG current change (%, negative = inhibition) at 1uM [%]
O=C(NCC1CCCO1)c1cccc(-n2cnnn2)c1 (stereo not drawn)	13.9
COc1ccc(NC(=O)Nc2nc3ccccc3s2)cc1	8.88
CC(C)OC(=O)/C(C#N)=C/c1ccc(-c2ccc(SC(F)F)cc2)o1	8.55
O=C(c1cc(-c2cccc(Cl)c2)nc2ccccc12)N1CCCC1	3.8
Cc1cc(SCC(=O)NC2CCCCC2)nc2ccccc12	11
NC1CCCCC1N=Cc1c(O)n(Cc2ccc(F)cc2)c(=O)[nH]c1=O (stereo not drawn)	14.5
COc1ccc(/C=C/C(=O)N2CCN(S(=O)(=O)c3ccccc3)CC2)cc1OC	2.76
Cc1ccc(NC(=O)c2ccccc2F)cc1S(=O)(=O)N1CCCCCC1	17.5
CC(OC(=O)/C=C/c1ccccc1)C(=O)NC1CCCCC1C (stereo not drawn)	10.8
COCCNS(=O)(=O)c1cc2[nH]c3c(c2cc1C)C(=O)CC(C)(C)C3	9.23
Cc1ccc(O)c(NC(=O)CSc2n[nH]c(C)c2[N+](=O)[O-])c1	18.2
C=CCN1c2ccccc2[C@]23C[C@@H](C(=O)OC)N(C(=O)CC(C)C)C2=NC(C(=O)OC)=C(C(=O)OC)[C@H]13	2.72
O=c1c2c3c(sc2ncn1Cc1ccc(F)cc1)CCC3	4.34
CCOC(=O)N1CCN(C(=O)CCC(=O)c2ccc(OCC)cc2)CC1	14.2
O=C(CSc1nnc(-c2cccnc2)o1)Nc1ccccc1F	2.7
CCCC(=O)NCCc1nc2ccccc2n1CC(=O)c1ccccc1	-0.165
Cc1ccc(S(=O)(=O)c2c(C)cc(C)nc2Cl)cc1	9.77
Cc1cc(NC(=O)CSCC(=O)Nc2ccccc2Oc2ccccc2)no1	10.3
COc1ccccc1CCc1nnc(N)s1	20.5
Cc1cccc(S(=O)(=O)c2c(N)n(/N=C/c3cccnc3)c3nc4ccccc4nc23)c1	0.902
CCNc1ccc(S(=O)(=O)N(C)C)cc1[N+](=O)[O-]	6.6
N/C(=N\[N+](=O)[O-])N1CCN(C(=O)Oc2ccccc2)CC1	11.4

Structure (SMILES)	hERG current change (%, negative = inhibition) at 1uM [%]
CN(Cc1ccccc1)C(=O)C1CCN(S(=O)(=O)c2cccc3nsnc23)CC1	7.87
c1ccc(C2[C@H]3CN(CC4CCCCC4)[C@H](c4ccccc4)C34CC2(c2cccnc2)C4)cc1 (stereo partly drawn)	0.067
COc1ccc(/C=N/Nc2cc(N3CCCC3)nc(N3CCCC3)n2)cc1	6.91
O=[N+]([O-])c1ccc(-n2ccnc2)cc1	14.2
COc1cccc(C(C(=O)NC2CCCC2)N(Cc2ccc(C)cc2)C(=O)c2ccco2)c1OC (stereo not drawn)	11
CC(=O)C[C@@H](O)CC(=O)[C@@H]1OC(=O)CC/C=C\Cc2ccccc21	10.3
Cc1nc(SCC(=O)Nc2nccs2)c(C#N)c(C)c1C	11.2
CCc1ccc(NC(=O)CC2C(=O)N(c3ccc(C)cc3)C(=O)N2C2CC2)cc1 (stereo not drawn)	-1.08
CCN(c1ccc(C(=O)CN2C(=O)NC3(CCOc4ccccc43)C2=O)cc1)S(C)(=O)=O (stereo not drawn)	5.77
Oc1ccccc1CNCCCNCc1ccccc1O	4.74
O=C(Cc1ccccc1[N+](=O)[O-])NCCC1=CCCCC1	11
COc1cc(C2CC(=O)NC(SCC(=O)Nc3ccccc3C)=C2C#N)ccc1O (stereo not drawn)	10.2
Cc1cccc(NC(=O)c2cnccn2)c1	13.5
CCN(CC)c1ccc(S(=O)(=O)N2CCOCC2)cc1NC(=O)CSc1nncn1C	10.5
CC(=O)c1c(C(C)=O)c(C)n(C(c2ccccc2)c2ccccc2)c1C	-4.36
COc1cccc2cc(C(=O)Nc3cccc(C)n3)c(=O)oc12	11.2
CCOC(=O)c1c(C)[nH]c(C)c1S(=O)(=O)NCc1ccc(OCC)cc1	9.47
O=C(CN(C(=O)CCC(=O)Nc1ccccn1)c1ccc(F)cc1)NCc1ccc(F)cc1	9.28
Cc1ccc(C)c(S(=O)(=O)N2CCN(C(=O)CCNS(=O)(=O)c3ccc(C)c(C)c3)CC2)c1	17.7
CCOC(=O)C1CCN(Cc2cc(=O)oc3c(C)c(C)ccc23)CC1	17.4
COc1cccc(NC(=O)CN(C)C(=O)CN2C(=O)NC3(CCCC3)C2=O)c1	1.6
O=C(CN1C(=O)C2C3C=CC(C3)C2C1=O)NCc1ccco1 (stereo not drawn)	-0.656

Structure (SMILES)	hERG current change (%, negative = inhibition) at 1uM [%]
Cc1ccc(OCC(=O)O/N=C(\N)c2ccncc2)c(C)c1	2.19
Cc1c(NC2(c3nnnn3-c3ccc(Br)cc3)CCCCC2)c(=O)n(-c2ccccc2)n1C	3.85
CCC(=O)Nc1c(-c2ccc(C)cc2)nc2ccc(C)cn12	9.83
Cc1ccc(CN2CCC(Oc3ccc(C(=O)NCc4ccccn4)cc3)CC2)o1	11.8
COCCn1c(SCC#N)nnc1-c1ccc2c(c1)OCO2	-7.21
O=C(/C=C/c1cccs1)NC1CCCC1	14.1
COc1ccc(OCCSc2nnc(C)n2-c2ccccc2)cc1	-12.7
COCCn1c(C)cc(C(=O)COC(=O)c2ccc(N3CCCC3=O)cc2)c1C	1.56
Cn1c(SCC(=O)Nc2ccccc2)nnc1-c1ccc2nonc2c1	2.01
Cc1ccc(CNC(=O)C2CCCN(S(=O)(=O)c3cccnc3)C2)cc1 (stereo not drawn)	6.82
O=C(NCCC1=CCCCC1)C1CCC(CNc2c(N3CCCC3)c(=O)c2=O)CC1 (stereo not drawn)	19.6
CCN(CC)S(=O)(=O)c1ccc(OC(C)C)c(NC(=O)c2c3c(nc4ccccc24)CCN(Cc2ccccc2)C3)c1	1.53
COc1ccc(C2C(C(=O)N3CCC4(CC3)OCCO4)c3cc(OC)c(OC)cc3C(=O)N2C)cc1 (stereo not drawn)	12.6
Cn1nc(C(F)(F)F)c(C(=O)Nc2ccc(F)cc2F)c1Oc1cccc(Cl)c1	0.0317
Cc1ccc(-n2c(SCC(=O)N3CCOCC3)nc(O)c(Cc3ccccc3)c2=O)cc1	11.3
O=C([O-])Cc1ccccc1Nc1c(Cl)cccc1Cl.[Na+]	14.1
CCOc1cccc2sc(N(CCCN(C)C)C(=O)c3ccc(S(=O)(=O)N(C)CC4CCCO4)cc3)nc12.Cl (stereo not drawn)	-30
Cc1nc2ccc(C(=O)N3CCN(Cc4ccccc4)CC3)cc2[nH]1	25.2
CN(CC(=O)NC1CC1)S(=O)(=O)c1ccc(Br)cc1	14.4
S=C(NC1CCCC1)N1CCN(c2ccccn2)CC1	13.2
COCC(=O)NC1CC2CCC(C1)N2C(=S)Nc1ccccc1C(=O)OC (stereo not drawn)	2.01
COC(=O)CCC(=O)Nc1ccc2oc3c(c2c1)CCCC3	18.3

Structure (SMILES)	hERG current change (%, negative = inhibition) at 1uM [%]
COc1ccc(OC)c(N/C(C)=C/C(=O)c2ccncc2)c1	-3.52
CCOC(=O)c1ccc(NCc2nc3ccccc3[nH]2)cc1	-0.845
COc1ccc(C2CC(=O)Oc3c(C(CCN4CCCC(C)C4)c4ccc(N(C)C)cc4)c(OC)cc(OC)c32)cc1 (stereo not drawn)	-1.36
OC[C@H]1OC(Nc2ccc(N=Nc3ccccc3)cc2)[C@@H](O)[C@@H](O)[C@@H]1O (stereo partly drawn)	5.2
O=C(Nc1ccccn1)c1c(O)c2cccc3c2n(c1=O)CCC3	7.78
O=C(COC(=O)c1ccccc1NCc1ccco1)Nc1ccc2c(c1)OCO2	3.29
Nc1nc(-n2cnnc2)nn1-c1ccccc1	7.69
CCOCCCNC(=O)CN1C(=O)CSc2ccccc21	1.4
CCOC(=O)C1CCN(C(=O)CSc2ccc(Cl)cc2)CC1	-3.43
CCOc1ccc(N(CC(=O)Nc2cc(Cl)ccc2C)S(C)(=O)=O)cc1	4.48
Cc1cccc(N2CCN(S(=O)(=O)c3ccc4c(c3)n(C)c(=O)c(=O)n4C)CC2C)c1 (stereo not drawn)	4.72
CCCCN1C(Nc2ccccc2)=NC[C@@H]1C	16.3
CCO[C@@H]1OC(C(=O)N2CCOCC2)=C[C@H](C2CC2)[C@H]1CCCO	8.93
CCOC(=O)c1c(Cc2cccc(Cl)c2)c[nH]c1C	7.04
C=C(C)c1cccc(C(C)(C)NC(=O)NCc2ccc(OC)cc2)c1	9.96
COc1ccc(CC(=O)N2N=C(C)CC2(O)C(F)(F)F)cc1 (stereo not drawn)	19.6
CCOC(=O)N1CCC(NC(=O)CS(=O)(=O)Cc2nc(-c3cccc(OC)c3)oc2C)CC1	-46.9
O=C(Cn1nnc2ccccc2c1=O)NC1CCCCC1	16.8
O=C(NC(=S)NC1CCCC1)c1ccccc1Br	19.7
COCCNC(=O)CC(=O)N/N=C/c1ccc(C(=O)OC)cc1	18.8
COC(=O)C1=C(c2ccc(Cl)c(C(F)(F)F)c2)C[C@@H]2CC[C@H]1N2C(=O)NCCOc1ccc(OC)cc1	14.3
